# Test results as given in PubChem BioAssay AID2675 (National Center for Advancing Translational Sciences (NCATS), 2010).
# Among all 280,000 compounds or so, about 100 (0.036%) were called active. Inconclusive means that the source gave no clear call. Such entries were picked first, then a sample of the others. The call rests on the fitted dose curve; in most records, active means well fitted inhibition curve with a large enough effect in the signal ratio, with a control signal flat (not every such curve was filed as active); inconclusive means small, poorly fitted or top-dose-only effect, or effect the other way, or a change in a side signal; inactive means no such curve, though single readings can be large or run the other way; the % refers to the signal ratio. Potencies beside an inconclusive call are fits to weak or partial responses and may not hold up. “Side channel” marks fits to a control or component signal instead of the main read-out.
# Target: Muscleblind-like protein 1 (Homo sapiens) (UniProt Q9NR56)
# Assay: qHTS Assay for Inhibitors of MBNL1-poly(CUG) RNA binding
# Details: TR-FRET MBNL1-His/biotin-(CUG)12 binding, 665/545 ratio; activity change, negative = inhibition: at 57.5 µM (top of the series)
# Procedure, shortened: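 Inhibition of protein-RNA binding appears as loss of TR-FRET between terbium anti-His antibody on MBNL1-His and streptavidin-XL665 on biotin-(CUG)12. Activity is normalized to buffer-only and uninhibited-complex controls.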
# On the % scale 0 is the no-effect control and ±100 the full control effect; potency means the concentration at half of the fitted maximal effect; tags describe the fitted curve by direction and shape or compound fluorescence and quenching.
# Chain of UniProt Q9NR56 (Q9NR56 whole entry, looked up): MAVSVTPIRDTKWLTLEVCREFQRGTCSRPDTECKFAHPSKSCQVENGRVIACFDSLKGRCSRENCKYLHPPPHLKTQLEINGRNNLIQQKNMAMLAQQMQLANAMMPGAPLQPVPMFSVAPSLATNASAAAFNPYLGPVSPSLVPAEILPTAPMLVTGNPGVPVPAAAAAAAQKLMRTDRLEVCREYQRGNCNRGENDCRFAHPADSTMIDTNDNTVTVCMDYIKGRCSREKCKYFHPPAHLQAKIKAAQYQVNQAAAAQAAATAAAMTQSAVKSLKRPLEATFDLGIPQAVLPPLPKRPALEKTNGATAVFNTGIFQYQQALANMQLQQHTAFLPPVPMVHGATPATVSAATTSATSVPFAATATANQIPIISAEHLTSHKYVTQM
SMILES,Potency,"activity change, negative = inhibition"
O=C(COC(=O)C1CCCCC1)Nc1ccc([N+](=O)[O-])cc1,"inconclusive: 28.2 µM [quencher, side channel, single point]",–
COc1cc(C)c(S(=O)(=O)Nc2ccc(CC(=O)O)cc2)cc1C,"inconclusive: 39.8 µM [quencher, side channel, single point]",–
O=C(O)c1ccc(S(=O)(=O)c2ccc3c(c2)C(=O)N(c2ccc(O)cc2)C3=O)cc1,"inconclusive: 28.2 µM [quencher, side channel, single point]",–
C1=Nc2ccccc2CN1c1ccccc1,inactive,–
O=C1c2ccccc2C(=O)c2cc(S(=O)(=O)Nc3ccccc3)ccc21,"inconclusive: 39.8 µM [quencher, single point]",–
O=C(CCN1C(=O)/C(=C/c2ccccc2Cl)SC1=S)NC1C=CS(=O)(=O)C1 (stereo not given),"inconclusive: 8.91 µM [quencher, side channel, partial curve]",–
N#CC1=C(N)SC(N)=C(C#N)C1c1cccc(O)c1,"inconclusive: 39.8 µM [quencher, side channel, single point]",–
O=C(Nc1c(C(=O)O)[nH]c2ccccc12)NC1CCCCC1,"inconclusive: 25.1 µM [quencher, side channel, single point]",–
Cc1cccc(C)c1OCC(=O)Nc1ccccc1C(F)(F)F,inactive,–
O=C1CCC(=O)N1OCCCOc1ccc(Br)cc1Cl,"inconclusive: 8.91 µM [quencher, side channel, single point]",–
CC(=O)Nc1ccc(C2C(=O)c3ccccc3C2=O)cc1,"inconclusive: 17.8 µM [quencher, side channel, single point]",–
O=C(O)CC(NC(=O)c1ccc2c(c1)OCO2)c1cccc([N+](=O)[O-])c1 (stereo not given),"inconclusive: 35.5 µM [quencher, side channel, single point]",–
COc1ccc(C2C(C#N)=C(N)Oc3cc(N)ccc32)cc1OC (stereo not given),"inconclusive: 14.1 µM [quencher, side channel, partial curve]",–
O=[N+]([O-])c1ccc(Cl)c(/C=N/n2c(COc3ccccc3)n[nH]c2=S)c1,"inconclusive: 3.16 µM [quencher, side channel, full curve]",–
COc1ccc(-n2nc([N+](=O)[O-])c(=NCCc3ccc(C)cc3)n2O)cc1,"inconclusive: 15.8 µM [quencher, partial curve]",–
COc1ccc(/C=N/Nc2cc(N3CCCC3)nc(N3CCCC3)n2)cc1,inactive,–
O=C1NC(=S)N/C1=C/c1cc([N+](=O)[O-])ccc1N1CCOCC1,"inconclusive: 12.6 µM [quencher, side channel, partial curve]",–
COc1ccc2c(c1)CCc1cn3nc(C)cc3nc1-2,"inconclusive: 39.8 µM [quencher, single point]",–
COc1cc(CCC(=O)OCC(=O)Nc2cccc(S(=O)(=O)N(C)C)c2)cc(OC)c1OC,"inconclusive: 12.6 µM [fluorescent, side channel, partial curve]",–
S=C(NCCc1ccccc1)NC1CCCCCC1,inactive,–

SMILES,Potency,"activity change, negative = inhibition"
CN(C(=O)CSc1nnc(-c2ccc(F)cc2)c2ccccc12)C1CCS(=O)(=O)C1 (stereo not given),"inconclusive: 0.355 µM [quencher, side channel, full curve]",–
CCOC(=O)c1cnc2c(OC)cccc2c1N1CCN(c2ccc(OC)cc2)CC1,"inconclusive: 20 µM [quencher, side channel, partial curve]",–
C=CCn1c(=N)n(CC(=O)c2cccc([N+](=O)[O-])c2)c2ccccc21,"inconclusive: 31.6 µM [quencher, side channel, single point]",–
CC(C)(CNc1ccc([N+](=O)[O-])cc1Cl)CNS(C)(=O)=O,"inconclusive: 15.8 µM [quencher, side channel, partial curve]",–
CC(=O)Nc1ccc(N2C(C(C)=O)=NN(c3ccc(Cl)cc3)C2c2sccc2C)cc1 (stereo not given),"inconclusive: 8.91 µM [quencher, side channel, single point]",–
CCOC(=O)CC1C(=O)NCCN1C(=O)c1cc2c(=O)n3ccccc3nc2s1 (stereo not given),"inconclusive: 7.08 µM [quencher, side channel, partial curve]",–
Cc1ccc([N+](=O)[O-])cc1S(=O)(=O)N1CCC(C)CC1,"inconclusive: 14.1 µM [quencher, side channel, partial curve]",–
CC1N(C(=O)N(C)C)CCN1S(=O)(=O)c1ccccc1 (stereo not given),inactive,–
O=C(CCN1C(=O)/C(=C/C=C/c2ccccc2)SC1=S)Nc1ccccn1,inactive,–
CCOC(=O)N1CCN(c2cc(NCCC(=O)O)c3c4c(onc24)-c2ccccc2C3=O)CC1,"inconclusive: 12.6 µM [quencher, side channel, partial curve]",–
CCOC(=O)/C(C#N)=C1\CCCN1CC(N)=S,–,inactive: 5.62% [at 11.5 µM]
O=C1CCC(=O)N1c1ccc(S(=O)(=O)Nc2cccc([N+](=O)[O-])c2)cc1,"inconclusive: 17.8 µM [quencher, side channel, partial curve]",–
COc1cccc(C(=O)/C=C2\NCCc3cc(OC)c(OC)cc32)c1,"inconclusive: 25.1 µM [quencher, side channel, partial curve]",–
CN1/C(=C\C=C(C#N)C#N)C(C)(C)c2ccccc21,inactive,–
CC(=O)Nc1ccc(S(=O)(=O)Oc2ccc(/C=C3\SC(N)=NC3=O)cc2)cc1,"inconclusive: 79.4 µM [inhibitor, single point]",–
Cc1cccc(OCCCn2c(=O)oc3ccc(C)cc32)c1,"inconclusive: 0.794 µM [fluorescent, side channel, single point]",–
CS(=O)(=O)N1CCN(c2ccccc2[N+](=O)[O-])CC1,"inconclusive: 28.2 µM [quencher, side channel, partial curve]",–
NNC(=O)c1ccc(N2CCCCCC2)c([N+](=O)[O-])c1,"inconclusive: 20 µM [quencher, side channel, partial curve]",–
CSc1cccc(NS(=O)(=O)c2cccc3nsnc23)c1,"inconclusive: 14.1 µM [quencher, side channel, partial curve]",–
O=C(CSc1cccc2cccnc12)Nc1ccc(S(=O)(=O)N2CCOCC2)cc1,"inconclusive: 28.2 µM [quencher, side channel, partial curve]",–

SMILES,Potency,"activity change, negative = inhibition"
COC(=O)CNC(=O)C1CCN(S(=O)(=O)c2cccc3nsnc23)CC1,"inconclusive: 20 µM [quencher, side channel, partial curve]",–
Oc1ccc(/C=N/n2c(-c3ccco3)csc2=Nc2cccnc2)c(O)c1,inactive,–
COc1cccc2cc(C(=O)NCc3ccco3)c(=Nc3ccc(C(=O)O)cc3)oc12,"inconclusive: 17.8 µM [quencher, side channel, partial curve]",–
Cc1cccc(OCCCC(=O)O)c1,"inconclusive: 4.47 µM [fluorescent, side channel, single point]",–
CC1=C(C(N)=O)C(c2ccccc2[N+](=O)[O-])n2ncnc2N1 (stereo not given),inactive,–
O=C1CCCN1c1ncc(S(=O)(=O)c2ccc([N+](=O)[O-])cc2)s1,"inconclusive: 2.24 µM [quencher, side channel, full curve]",–
CCC(C(=O)NC1CCCC1)N(Cc1cccs1)C(=O)Cn1nnc(-c2ccc(OC)c(OC)c2)n1 (stereo not given),"inconclusive: 0.355 µM [quencher, side channel, full curve, poor fit]",–
CCCCn1c(=O)[nH]c(=O)c2c1nc(-c1ccc([N+](=O)[O-])cc1)n2CC,"inconclusive: 3.55 µM [quencher, side channel, full curve]",–
O=C(CP(=O)(c1ccccc1)c1ccccc1)N/N=C/c1cc(Br)cc(Br)c1O,inactive,–
Cc1oc2c(C)c3oc(=O)c(CCC(=O)NCCCCCC(=O)O)c(C)c3cc2c1C,inactive,–
Nc1nc2sc3c(c2cc1C(=O)NCC(=O)O)CCCC3,"inconclusive: 5.62 µM [quencher, side channel, partial curve]",–
O=C(Nc1ccon1)c1ccc(Cl)s1,"inconclusive: 39.8 µM [quencher, side channel, single point]",–
Cc1ccc(/C=N/NC(=O)C2CC(=O)N(c3ccccc3)C2)s1 (stereo not given),"inconclusive: 7.94 µM [quencher, side channel, full curve]",–
CN1CCN(c2nc(-c3cccc([N+](=O)[O-])c3)nc3ccccc23)CC1,"inconclusive: 25.1 µM [quencher, side channel, partial curve]",–
CNC(=O)C1CC(=O)N(CCc2ccc(OC)c(OC)c2)C(=Nc2ccc(F)cc2)S1 (stereo not given),inactive,–
Cc1cccc(N2CCN(C(=O)c3ccc(CS(=O)(=O)c4ccccc4C)o3)CC2C)c1 (stereo not given),inactive,–
Cc1ccc(S(=O)(=O)N2CCC(C(=O)N/N=C/c3ccccc3[N+](=O)[O-])CC2)cc1,"inconclusive: 11.2 µM [quencher, side channel, partial curve, poor fit]",–
COc1cc(/C=N/NC(=O)C2c3ccccc3Oc3ccccc32)ccc1O,inactive,–
COCCn1c(C)cc(C(=O)COc2ccc(C)nc2[N+](=O)[O-])c1C,"inconclusive: 14.1 µM [quencher, side channel, partial curve]",–
Cn1cc([N+](=O)[O-])c(C(=O)N/N=C/c2ccc3c(c2)OCO3)n1,"inconclusive: 6.31 µM [quencher, side channel, partial curve]",–
